Reference: the supplement of paper PMC11417369
± gives the standard deviation of the averaged measurements. Some of the results follow.

These sequences were tested on PfAP2-G AP2 domain (GST-tagged) (assay: gcPBM binding intensity (ln(normalized median fluorescence intensity)); higher = stronger DNA binding).
How it was run: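 Probes on an Agilent 4 × 180k array were primer-extended, double-stranded and 36 bp long, taken from intergenic genomic regions, with negative controls added. GST-tagged P. falciparum DNA-binding domains from E. coli, about 25 μg on average, were applied to the array for 1 h in 1× PBS containing 1% milk, 0.2 mg/ml BSA, 0.5% salmon testes DNA and 0.03% Triton X-100. Binding intensity, obtained after Alexa488 anti-GST antibody detection and a 488 nm scan, is the highest Masliner-normalised natural-log median intensity across replicate spots of either probe orientation.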
For AAAGAAAACCAAGTGGTGCATTTTCGTTACTTCATC, the “gcPBM binding intensity (ln)” value was 9.955 ± 0.049.
With “CAATGTTACTATAATACACACAATATGTATTTGTCT [CACACA_site6668]” the “gcPBM binding intensity (ln)” value was 10.03 ± 0.057.
In the case of “TTGTTTAACTTGTTAAATATAATGTATCTGTGGATA [GTGCAC_negctrl_site108]”, the “gcPBM binding intensity (ln)” value is reported as 9.8 ± 0.13.
With “AAATAAAAAATGGAAATCTTAACAAGAATCATTAAC [CACACA_negctrl_site1626]” the “gcPBM binding intensity (ln)” value was 9.69 ± 0.18.
With “AAAAAATAAATAAATAGTACTTTAAAAGAAAAAAAA [XGTACX_site5051]” the “gcPBM binding intensity (ln)” value was 10.9 ± 0.66.
In the case of “ATAAAAAATTTAAGTATTTTTTACAAACCTATAAAT [GTGCAC_negctrl_site51]”, the “gcPBM binding intensity (ln)” value is reported as 9.71 ± 0.18.
With “TATACACTTGTAATAACACACATTATTTTTTTTTTT [CACACA_site1324]” the “gcPBM binding intensity (ln)” value was 9.48 ± 0.43.
With “TATATATATATATCCACACACATACATATATTAATA [CACACA_site69]” the “gcPBM binding intensity (ln)” value was 10.4 ± 0.61.
With “TTGGTAATTTTAAAATGTACTTATTATATATATATA [XGTACX_site5642]” the “gcPBM binding intensity (ln)” value was 11.3 ± 0.93.
With “TTATATTTATATGTAATACAAAATAACAAAAAATTT [CACACA_negctrl_site1721]” the “gcPBM binding intensity (ln)” value was 9.94 ± 0.18.
In the case of “AAATTAAAAGAAAATACACACCTGTGGGTGCTTATA [CACACA_site5143]”, the “gcPBM binding intensity (ln)” value is reported as 10 ± 0.15.
“TATTTATTCACTTATTGTACTTATATATATAATAAA [XGTACX_site6147]” was tested, and the “gcPBM binding intensity (ln)” value was 11.2 ± 0.76.
“ATTTTTTTTTGTTTAATGTTATGTGGTCATTAAATT [CACACA_negctrl_site1177]” was tested, and the “gcPBM binding intensity (ln)” value was 11.1 ± 0.91.
“TATACACACAGACATGCATGCACATATATATATACA [TGCATGCA_site30]” was tested, and the “gcPBM binding intensity (ln)” value was 10.1 ± 0.15.
For “AATTAACCGAAACACACACACATATATATATATATA [CACACA_site3963]”, the “gcPBM binding intensity (ln)” value was 10 ± 0.23.
In the case of “ATATATTTTTTTTAGCGTACATGCAAAAAAAAAAAA [XGTACX_site4590]”, the “gcPBM binding intensity (ln)” value is reported as 11.3 ± 0.88.
In the case of “TCATAAATTAAACACACACACACATCTGGATACCCC [CACACA_site9096]”, the “gcPBM binding intensity (ln)” value is reported as 10.6 ± 0.32.
“TTTTGTTGTTGTTGTTGTACATAAATAATAAAATAT [XGTACX_site8681]” was tested, and the “gcPBM binding intensity (ln)” value was 11.3 ± 0.95.
“AAATGATGGAAAAAATAAATTTTTGTACAAAAATTA [CACACA_negctrl_site814]” was tested, and the “gcPBM binding intensity (ln)” value was 10.8 ± 0.44.
For “TTATAAATATTCTTGGGTACTTAAGATGATATGTAA [XGTACX_site5496]”, the “gcPBM binding intensity (ln)” value was 11.1 ± 0.78.
With “TTATTTTAATAACCTACACACATTTTGTATATTTTA [CACACA_site4000]” the “gcPBM binding intensity (ln)” value was 9.75 ± 0.16.
In the case of “AAAAAAAAAAAAAATTGTACAAAAAAAATAAATAAA [XGTACX_site6816]”, the “gcPBM binding intensity (ln)” value is reported as 10.9 ± 0.46.
In the case of “AAAAAAAAAAAAGAAACACACATATTTATATTTATA [CACACA_site6213]”, the “gcPBM binding intensity (ln)” value is reported as 9.655 ± 0.049.
“TTTTTTTTATTTTAATGTACATTTTTTATTTGTTAT [XGTACX_site7189]” was tested, and the “gcPBM binding intensity (ln)” value was 11.1 ± 0.69.
TAATAAAATATGTACGTGCACATAATTATACTAAAA was tested, and the “gcPBM binding intensity (ln)” value was 11.5 ± 0.93.
“ATATATATATTATTTCGTACATAATTATTTGCCTTA [XGTACX_site350]” was tested, and the “gcPBM binding intensity (ln)” value was 10.6 ± 0.49.
For CCACGAGAATATATAGTGCATAATAATTTTTTTTTG, the “gcPBM binding intensity (ln)” value was 9.92 ± 0.099.
For “GGTGATAATAAGCATACACACACACCCAAAAAAAAA [CACACA_site8137]”, the “gcPBM binding intensity (ln)” value was 10.3 ± 0.29.
In the case of “TTTTTTTTGTGGTGTCGTACATATGTTTGTTTTAAG [XGTACX_site1759]”, the “gcPBM binding intensity (ln)” value is reported as 11.3 ± 0.8.
In the case of “ACATATATATATATATATATATATATATAATATTTA [CACACA_negctrl_site633]”, the “gcPBM binding intensity (ln)” value is reported as 10.1 ± 0.44.
With “ATTATGCTACAAGGAGAACACACAATTGCCACTTTT [CACACA_site8673]” the “gcPBM binding intensity (ln)” value was 10.2 ± 0.13.
With “ATATATATCAGACACACACACATGTTTTAAAACTAT [CACACA_site77]” the “gcPBM binding intensity (ln)” value was 10.3 ± 0.13.
With “TAAATTTTTAAATACACACATACACCCATACAGACA [CACACA_site548]” the “gcPBM binding intensity (ln)” value was 10.7 ± 0.53.
With “AAAAAAAAAAAGAAAGCACACAATACATATGTATAA [CACACA_site1137]” the “gcPBM binding intensity (ln)” value was 9.815 ± 0.035.
For “TTATGTATAAACACACGTACACACACTAAGTATATC [XGTACX_site3254]”, the “gcPBM binding intensity (ln)” value was 11.5 ± 1.
For “AAGGTATGATTAATCACACACATAAATATATATACA [CACACA_site2658]”, the “gcPBM binding intensity (ln)” value was 9.72 ± 0.22.
“ATATTAATTCGTTTTGTACACACATAATGAATAATT [CACACA_site8701]” was tested, and the “gcPBM binding intensity (ln)” value was 11 ± 0.54.
In the case of “ATAAAAATCATGTTGGTGCGAAATTTTATTATCAGA [GTGCAC_site9735]”, the “gcPBM binding intensity (ln)” value is reported as 9.99 ± 0.028.
In the case of “AATTATTTACCCTATACACACAAAACAGACTAAAAA [CACACA_site6688]”, the “gcPBM binding intensity (ln)” value is reported as 10.4 ± 0.31.
For “AGCCTCGGGGTCATATATATATATATATATATATAT [CACACA_negctrl_site512]”, the “gcPBM binding intensity (ln)” value was 10.3 ± 0.42.
For “CCACGTATAATATGTACACACACATATATACAAAAA [CACACA_site8208]”, the “gcPBM binding intensity (ln)” value was 11.4 ± 0.98.
“ATTATATTTTTAAGTACACACATATATATATATATA [CACACA_site5925]” was tested, and the “gcPBM binding intensity (ln)” value was 11.5 ± 0.91.
For “TTTAAAAAGATATATACACACATATAAATAAATATA [CACACA_site6436]”, the “gcPBM binding intensity (ln)” value was 9.85 ± 0.071.
For “ACACATACACATTAGGTGCATATATTTCAATATTAC [GTGCAC_site9423]”, the “gcPBM binding intensity (ln)” value was 10.1 ± 0.14.
In the case of “TGTATACTATTAAATTGTACACATAAGAAATATTAT [XGTACX_site5839]”, the “gcPBM binding intensity (ln)” value is reported as 11.4 ± 0.86.
